Laboratory results taken from US20240082414A1 (Eli Lilly, published 2024).

How the values were obtained:
[1] = target: T1, human TNFα (recombinant, soluble) (human, UniProt P01375 fragment); test: cell-based or functional assay
[2] = target: T2, human FcγRI (CD64) extracellular domain (human, UniProt P12314 16-292); test: SPR (Biacore), antibody captured on Protein A, FcγR ECD as analyte, 25° C.
T2 construct: extracellular domain; also called FcγRI ECD
Experimental: (§1) Injections of 2×10 μL of glycine, pH 1.5, was used to remove any noncovalently associated protein. […] FC1 was the reference FC, therefore no antibody was captured in FC1. […] Duplicate injections of each concentration were injected over all FCs at 40 μL/minute for 120 seconds followed by a 1200 second dissociation phase. Regeneration was performed by injecting 15 μL of 10 mM glycine, pH 1.5, at 30 μL/minute over all FCs. Reference-subtracted data was collected as FC2 FC1, FC3-FC1, and FC4-FC1 and the measurements were obtained at 25° C. The affinity (KD) was calculated using either steady state equilibrium analysis with the Scrubber 2 Biacore Evaluation Software or a “1:1 (Langmuir) binding” model in BIA Evaluation. […] FC1 was the reference FC. […] Duplicate injections of each concentration were injected over all FCs at 40 μL/minute for 60 seconds followed by a 120 second dissociation phase. Regeneration was performed by injecting 15 μL of 10 mM glycine, pH 1.5, at 30 μL/minute over all FCs. Reference-subtracted data was collected as FC2-FC1, FC3-FC1, and FC4-FC1, and the measurements were obtained at 25° C. The affinity (KD) was calculated using the steady state equilibrium analysis with the Scrubber 2 Biacore Evaluation Software. Each receptor was assayed at least two times.

[3] = target: T1, human TNFα (recombinant, soluble); test: antigen-down ELISA, plate coated with human TNFα
Experimental: Example 2a. […] Briefly, 384-well high binding plates (Greiner Bio-one #781061) were coated with 20 μL per well of 1 μg/mL of human TNFα (Syngene), 2 μg/mL of rhesus macaque TNFα (R&D Systems, Cat# 1070-RM), or 2 μg/mL of canine TNFα (R&D Systems, Cat# 1507-CT/CF) diluted in carbonate buffer pH 9.3 (0.015 M Na₂CO₃ and 0.035 M NaHCO₃) and stored at 4° C. overnight. […] The plates were incubated at 37° C. for 90 min, then washed three times in PBS/0.1% Tween. 20 μL of secondary antibody reagent goat-anti-human-kappa-AP (Southern Biotech, Cat# 2060-04) with 1:1500 dilution was added to the plate and incubated for 45 minutes at 37° C. Plates were washed 3 times as above, and 20 μL of alkaline phosphatase substrate solution diluted to 1:35 in molecular grade water was added to every well. Once the color developed (approximately 15-30 min), plates were read at 560 nm OD on a Molecular Device Spectramax plate reader and data was acquired using Softmax Pro 4.7 software. Data analysis was performed in GraphPad Prism.

[4] = target: T3, human FcγRIIb (CD32b) extracellular domain (human, UniProt P31994 43-217); test: SPR (Biacore), antibody captured on Protein A, FcγR ECD as analyte, steady state, 25° C.
T3 construct: extracellular domain
T3 sequence (looked up): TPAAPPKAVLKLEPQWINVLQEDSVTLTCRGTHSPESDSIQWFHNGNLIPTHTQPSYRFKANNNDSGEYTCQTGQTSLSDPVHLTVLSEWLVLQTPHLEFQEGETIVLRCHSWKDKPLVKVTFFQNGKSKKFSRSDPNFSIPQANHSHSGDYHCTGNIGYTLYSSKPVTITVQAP
Experimental: as §1

T1 sequence (P01375 77-233 limits assumed): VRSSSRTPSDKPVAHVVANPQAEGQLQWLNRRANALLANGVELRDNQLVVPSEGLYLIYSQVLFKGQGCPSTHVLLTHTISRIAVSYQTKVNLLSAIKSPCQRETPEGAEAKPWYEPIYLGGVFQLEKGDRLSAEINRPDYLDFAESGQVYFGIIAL
T2 sequence (P12314 16-292): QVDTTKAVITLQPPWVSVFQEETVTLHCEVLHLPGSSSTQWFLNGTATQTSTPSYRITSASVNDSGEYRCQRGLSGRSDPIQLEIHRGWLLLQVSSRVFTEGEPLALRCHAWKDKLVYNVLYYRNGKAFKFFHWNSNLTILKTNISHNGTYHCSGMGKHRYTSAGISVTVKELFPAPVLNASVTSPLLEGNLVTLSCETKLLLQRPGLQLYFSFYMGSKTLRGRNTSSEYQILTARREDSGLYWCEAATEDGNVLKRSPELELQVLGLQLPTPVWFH

Inhibition of soluble human TNFα induced apoptosis IC50 (L929 cells) [1]: 0.104 µg/mL
Kd [2]: 0.0486 nM
EC50 [3]: 0.325 µg/mL
Kd [4]: 1300 nM
B1: anti-human TNFα Ab1 GC conjugate of Example 1b (n is 4) (antibody, human IgG1, kappa)
heavy: QVQLVQSGAEVKKPGASVKVSCKASGYTFTGYYIHWVRQAPGQGLEWMGWINPYTGGTNYAQKFQGRVTMTRDTSISTAYMELSRLRSDDTAVYYCARDLYGSSNYGGDVWGQGTTVTVSSASTKGPCVFPLAPSSKSTSGGTAALGCLVKDYFPEPVTVSWNSGALTSGVHTFPAVLQSSGLYSLSSVVTVPSSSLGTQTYICNVNHKPSNTKVDKRV[left out - human IgG1 Fc with A378C (EU numbers)]
light: DIQMTQSPSSLSASVGDRVTITCQASQGISNYLNWYQQKPGKAPKLLIYDASNLETGVPSRFSGSGSGTDFTFTISSLQPEDIATYYCQQYDKLPLTFGGGTKVEIKRTVAAPSVFIFPPSDEQLKSGTASVVCLLNNFYPREAKVQWKVDNALQSGNSQESVTEQDSKDSTYSLSSTLTLSKADYEKHKVYACEVTHQGLSSPVTKSFNRGEC
modifications: glucocorticoid receptor agonist payload-linker GC-L (Preparation 8) conjugated to the engineered cysteines at the 124 and 378 position of the heavy chain (EU numbering); average DAR 4.00-4.23
notes: Antibody-drug conjugate of Ab1 with the glucocorticoid payload-linker
